19 variants from the RNAGym collection of RNA variant scans (doi:10.1073/pnas.2313332121) can be followed below.

Sequences and labels used below:
B1: TPR 5TU (parent)
chain: GGAUCUUCUCGAUCUAACAAAAAAGACAAAUCUGCCACAAAGCUUGAGAGCAUCUUCGGAUGCAGAGGCGGCAGCCUUCGGUGGCGCGAUAGCGCCAACGUUCUCAACUAUGACACGCAAAACGCGUGCUCCGUUGAAUGGAGUUUAUCAUG

This sample is rich in variants without activity.

In the series the parent is B1. Kind of series: polymerase ribozyme fitness, log enrichment relative to wild type (log ratio); higher = more active; in vitro selection for triplet polymerase activity. In a few lines: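 Libraries of mutants in each subunit of a heterodimeric triplet polymerase ribozyme were generated by PCR and transcribed. In triplicate, each went through one in vitro selection round: annealing with biotinylated primer, partner subunit and triplets; frozen incubation at −7 °C; gel excision of extended constructs; streptavidin-bead capture; RT-PCR. Fitness, taken from Illumina sequencing of input and output libraries, is the logarithm of a genotype's enrichment over wild-type enrichment, averaged across replicates with inverse-variance weights. The logarithm is base 2, and genotypes needed ≥10 input reads and ≥1 read per output to be kept.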
Turning to GGAUCUUCUCGAUCUAACAAAAUACACAAAUCUGCCACAAAGCUUGAGAGCAUCUUCGGAUGCAGAGACGGCAGCCCUCGGUGGCGCGAUAGCGCCAAUGUUCUCAACUAUGACACGCAAAACGCGUGCCCCGUUGAAUGCAGUUUAUCAUG, the “polymerase ribozyme fitness (log ratio)” value is not above -4.2.
With GGAUCUUCUCGAUCUAACAAAAUAGACAAAUCUACCACAAAGCUUGAGAGCAUCUUCGGAUGCAGAGGCGGCAGCCUUCGGUGGCGCGAUAGGGCCAGCGUUCUCAACUAUGACACACAAAACGCGUGCUCCGUUGAAUGGAGUUUAUCAUG, the “polymerase ribozyme fitness (log ratio)” value was not above -4.2.
The same measure for GGAUCUUCUCGAUCUAACAAAAUAGACAAAUCUGCCACAAAGCUUAAGAGCAUCUUCGGAUGCAGAGGCGGCAGCCUUCGGUGGCGGGAUAGCGCUAACGUUCUCAACUAUGAUACGCAAAACGGGUGCUCCGUUGAAUGGAGUUUAUCCUG: not above -4.2.
Turning to GGAUCUUCUCGAUCUAACAAAAUAGACAAAUCUGCCACAAAGCUUUAGAGCAUCUUCGGAUGCAGAGGCGGCAGCCUUCGGUGGCGUUAUAGCGCCAACGUUCUCAACUAUGACACGCGCAACGCGUGCUCCUUUGAAUGGAGUUUAUCAUG, the “polymerase ribozyme fitness (log ratio)” value is not above -4.2.
As to GGAUCUUCUCGAUCUAACAAAAUAUACAAAUCUGCCACAAAGCUUGAGAGCAUCUUCGGUUGCAGAGGCGGCAGCCUUCGGUGGCGCGAUAGCGCCAACUUUCUCAACUAUGACACGCAAAACGCGUGCUCCGUUGAAUGGAGUUUAUCAUG, the “polymerase ribozyme fitness (log ratio)” value is not above -4.2.
Take GGAUCUUCUCGAUCUAACAAAAUAUACAAAUCUGACACAAAGCUUGAGAGCAUCUUCGGAUGCAGAGGCGGCAGCCUUCGGUGGCGCGAUAGCGCCAACGUUCUCAACUAUGACACGCAAAACGCGUGCUCCGUUGAAUGGAAUUUAUCAUG: the “polymerase ribozyme fitness (log ratio)” value is not above -4.2.
Take GGAUCUUCUCGAUCUAACAAAAUAGACAAAUCUGCCACAAAGCUUGAGAGCAUCUUCGGAUGCAGAGGCGGCAGCCUUCGGUGGCGCGAUAGCGCCAACGUUCUCAAAUAUGACACGCAAAACGCGUGCUCCGUUGAAUGGACUUUAUCAUG: the “polymerase ribozyme fitness (log ratio)” value was not above -4.2.
With GGAUCUUCUCGAUCUAACAAAAUAGACAAAUCUGCCACAAAGCUUCAGACCAUCUUCAGAUGCAGAGGCGGCAGCCUUGGGUGGCGCAAUAGCGCCAACGUUCUCAACUAUGACACGCAAAACGCGUGCUCCGUUGAAUGGAGUUUAUCAUG, the “polymerase ribozyme fitness (log ratio)” value is not above -4.2.
Consider GGAUCUUCUCGAUCUAACAAAAUAUACAAAUCUGCCGCAAAGCUUGAGAACAUCUUCGGAUGCAGAGGCGGCAGCCUUCGGUGGCGCCAUAGCGCCAACGUUCUCAAUUAUGACACGCAAGACUCGUGCUCCGUUGAAUGGAGUUUAUCAUG, for which the “polymerase ribozyme fitness (log ratio)” value was not above -4.2.
For GGAUCUUCUCGAUCUAACAAAAUAGACAAAUCUGCCACAAACCUUGAGAGCAUCUUCGGAUUCAGAGGCGGCAGCCUUCGGUGGCGCGAUAGCGCCAACGUUCUCAACUAUGACACGCAAAACGCGUGCUCCGUUGAAUGGAGUUUUUCAUG, the “polymerase ribozyme fitness (log ratio)” value was not above -4.2.
Under GGAUCUUCUCGAUCUAACAAAAUAGACAAAUCUGCCACAAAACUUGAGAGCAUCUUCGGAUGCAGAGGCGGCAGCCUUCGGUAGCGCGAUAGCGCCAACGUUCUCAACUAUGACACGCAAAACGCGUGCUCCGUUGAAUGUAGUUUAUCAUG stands not above -4.2.
The same measure for GGAUCUUCUCGAUCUAACAAAAUAUACAAAUCUGCCACAAAGCUUGAGAGCAUCUCCGGAUGCAGAGGCGGCAGCCUUCGGUGGCGCGAUAGAGGCAACGUUCUCAACUAUGACACGCACAACUCGUGCUCCGUUGAAUGGAGUUUAACAUG: not above -4.2; for GGAUCUUCUCGAUCUAACAAAAUAGACAAAUCUGCCACAAAGCUUGAGAGCAUCUUCGGAUGCAGAGGCGGCAGCCUUCGGUGGCGCGAUAGCGCCAACGUUCUCAACUAUGACACGCAAAACGAGUGCUCCGUUGAAUGGAGUUUAUCAUG: -3.51; for GGAUCUUCUCGAUCUAACAAAAUAAGAAAAUCUGCCACAAAGCUUGAGCGCAUCUUCGGAUGCAGAGGCGGCAGCCUUCGUUGGCGCGCUAGCGCCACCGUUCUCAAUUAUGACACGCAAAACGCGUGCUCCGUUGAAUUGAGUUUAUCAUG: not above -4.2.
Under GGAUCUUCUCGAUCUAACAAAAUAGACAAAUCUGCCACAAACCUUGAGAGCAUCUUCGGAUGCAGAGGCGGCAGCCUUCGGUAGCGCGAUAGCGCCAACGUUCUCAACUAUGACACGCAAAACGCGUGCUCCGUUGAAUGGAGUUUAUCAUG stands not above -4.2; under GGAUCUUCUCGAUCUAACAAAAUAGACAAAUCUGCCACAAAGCUUAAGAGCAUCUUCGGAUGCAGAGGCGGCAGCCUUCGGUGGCGCGAUAGUGCCAACGUUCUCAACUAUGACACGCAAAACGCGUGCUCCGUUGAAUGGAGUUUAUCAUG, not above -4.2.
For GGAUCUUCUCGAUCUAACAAAAUAGACAAAUCUACCACACAGCUUGAGAGCAUCUUCGGAUGCAGAGGCGGCAGCCUUCGGUGGCGCGAUAGCGCCAACGUUCUCAUCUAUGACACGCAAAACGCGUGCUCUGUUGAAUGGACUUUAUCAUG, the “polymerase ribozyme fitness (log ratio)” value was not above -4.2.
Under GGAUCUUCUCGAUCUAACAAAAUAGACAAAUCUGCCACAAAUCUUGAGAGCAUCUUCUGAUGCAGAGGCGGCAGUCUUCGGUGGCGCGAUAGCGCCAACGUUCUCAACUAUGACACGCAAAACGCGUGCUCCGUUGAAUGGAGUUUAGCAUG stands not above -4.2.
On to GGAUCUUCUCGAUCUAACAAAAUAGACAAAUCUGCCACAAAGCUUGAGAGCAUCUUCGGAUGCAGAGGCGGCAGCCUUCGGUGGCGCGAUAGCGCCAACGUUCUCAACUAUGACACGCAAAACGCGUGCUCCGUUGAAUGGAGUUUAUUAUG, for which the “polymerase ribozyme fitness (log ratio)” value was not above -4.2.
